Measurements: patent publication US12692294B2, “Engineered NRG-1 variants with improved selectivity toward ErbB4 but not against ErbB3” (Amgen Inc., priority 2021, dated 2026)
Where two headings read alike, the source gives them in different places.

Assays:
ErbB4 = molecular target: T1, ErbB4 (Rattus norvegicus, UniProt Q62956); test: In vitro phosphorylation of Akt in neonatal rat cardiomyocytes; type: cell-based; conditions: for EC50: Akt (Serine 473) phosphorylation, neonatal rat cardiomyocytes, 15 minutes treatment, read-out: Cardiomyocyte (CM) (ErbB4) Avg EC50; for Selectivity SC/CM: ratio of EC50s Schwann cells/cardiomyocytes; for CM % Agonism AVG: top value of the Akt phosphorylation data points in cardiomyocytes, wild-type control 100
T1 construct: forming the ErbB2/ErbB4 complex in cardiomyocytes and the ErbB2/ErbB3 complex in Schwann cells; endogenous in cells; host or cells: primary neonatal rat cardiomyocytes (Sprague Dawley pups, 0 to 4 days old)
Outline: (§1)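 Neonatal Sprague Dawley rat cardiomyocytes (ErbB2/ErbB4) and rat Schwann cells (ErbB2/ErbB3), serum-starved 16 h, were exposed 15 min to neuregulin variant titrations. Ser473 phospho- and total Akt measured by MSD electrochemiluminescence; percent phosphorylation fitted by 4-parameter curve for EC50, top value giving CM % agonism.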

ErbB3 = molecular target: T2, ErbB3 (Rattus norvegicus, UniProt Q62799); test: In vitro phosphorylation of Akt in rat Schwann cells; type: cell-based; conditions: Akt (Serine 473) phosphorylation, 15 minutes treatment; for EC50: read-out: Schwann cells (SC) (ErbB3) Avg EC50
T2 construct: forming the ErbB2/ErbB4 complex in cardiomyocytes and the ErbB2/ErbB3 complex in Schwann cells; endogenous in cells; host or cells: rat Schwann cells
Outline: as §1

[1] = tested on: Surgically induced myocardial infarction (MI) Sprague Dawley (SD) rats; test: ErbB4 selective agonist efficacy in rat myocardial infarction (MI) model (Example 2, SC dosing); type: in vivo
Method: An ErbB4 selective agonist (huNRG1(S177-F229)(NRGE1C)((G4E)2)::G4:: huFcSEFL2 (Pb)) was tested in a rat MI model to determine whether a benefit could be seen in improving cardiac function.
14 days before MI surgery, rats were subjected to echocardiography to assess the cardiac function by ejection fraction (EF %). Noninvasive parasternal long axis B mode cine loops were acquired using Vevo 2100 system (VisualSonics Inc., Toronto, Canada). EF was calculated using the manufacturer's recommended method. Rats were randomized into three groups based on the baseline ejection fraction numbers: 1. Vehicle; 2. ErbB4 agonist 10 μg/kg; 3. ErbB4 agonist 20 μg/kg. After randomization on week 2, 16 rats were dosed with a vehicle or 10 μg/kg or 20 μg/kg, ErbB4 agonist, subcutaneously (SC).
Anesthesia exposure is known to influence cardiac function so isoflurane was maintained at 2.5% during echocardiography to minimize its influence on cardiac function. Isoflurane exposure duration per animal was <10 min during echocardiography. Animals were closely monitored during the study.

[2] = GGT -> GGC silent mutation before terminal lys

T2 sequence (Q62799 20-1339): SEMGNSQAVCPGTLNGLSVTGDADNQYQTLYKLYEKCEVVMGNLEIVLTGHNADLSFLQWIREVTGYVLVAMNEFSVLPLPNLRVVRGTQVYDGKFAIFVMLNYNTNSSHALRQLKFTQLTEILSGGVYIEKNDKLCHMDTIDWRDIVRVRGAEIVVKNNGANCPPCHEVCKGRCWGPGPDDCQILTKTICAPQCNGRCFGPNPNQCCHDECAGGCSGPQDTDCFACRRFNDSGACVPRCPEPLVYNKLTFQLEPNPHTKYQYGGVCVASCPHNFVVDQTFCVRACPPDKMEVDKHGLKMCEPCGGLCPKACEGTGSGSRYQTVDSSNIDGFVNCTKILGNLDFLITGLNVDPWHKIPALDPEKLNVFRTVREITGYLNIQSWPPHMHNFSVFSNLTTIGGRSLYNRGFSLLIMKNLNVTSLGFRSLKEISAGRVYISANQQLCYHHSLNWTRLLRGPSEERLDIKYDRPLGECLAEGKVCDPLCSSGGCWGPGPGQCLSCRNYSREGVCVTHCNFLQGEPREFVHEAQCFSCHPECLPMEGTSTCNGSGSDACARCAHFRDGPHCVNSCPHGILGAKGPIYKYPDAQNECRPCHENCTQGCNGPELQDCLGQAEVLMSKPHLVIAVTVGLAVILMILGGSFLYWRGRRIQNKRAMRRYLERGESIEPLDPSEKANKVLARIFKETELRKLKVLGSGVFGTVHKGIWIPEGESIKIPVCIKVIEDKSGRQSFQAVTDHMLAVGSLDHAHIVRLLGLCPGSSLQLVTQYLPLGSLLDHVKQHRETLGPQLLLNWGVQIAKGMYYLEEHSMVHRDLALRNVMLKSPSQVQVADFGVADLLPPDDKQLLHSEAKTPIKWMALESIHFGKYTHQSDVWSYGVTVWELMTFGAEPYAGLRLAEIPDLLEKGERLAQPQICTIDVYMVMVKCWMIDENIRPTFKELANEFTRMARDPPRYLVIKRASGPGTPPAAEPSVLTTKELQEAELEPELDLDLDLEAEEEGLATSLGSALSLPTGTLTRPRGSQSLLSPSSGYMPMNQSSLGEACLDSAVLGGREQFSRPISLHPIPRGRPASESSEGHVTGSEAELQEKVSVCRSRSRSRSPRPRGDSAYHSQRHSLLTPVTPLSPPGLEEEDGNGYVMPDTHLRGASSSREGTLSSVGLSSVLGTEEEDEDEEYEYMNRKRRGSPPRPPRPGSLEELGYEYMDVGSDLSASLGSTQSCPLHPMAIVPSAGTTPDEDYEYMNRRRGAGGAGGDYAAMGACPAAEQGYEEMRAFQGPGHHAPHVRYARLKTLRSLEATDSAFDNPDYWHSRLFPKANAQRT
T2 sequence (P06494 23-1257 partner): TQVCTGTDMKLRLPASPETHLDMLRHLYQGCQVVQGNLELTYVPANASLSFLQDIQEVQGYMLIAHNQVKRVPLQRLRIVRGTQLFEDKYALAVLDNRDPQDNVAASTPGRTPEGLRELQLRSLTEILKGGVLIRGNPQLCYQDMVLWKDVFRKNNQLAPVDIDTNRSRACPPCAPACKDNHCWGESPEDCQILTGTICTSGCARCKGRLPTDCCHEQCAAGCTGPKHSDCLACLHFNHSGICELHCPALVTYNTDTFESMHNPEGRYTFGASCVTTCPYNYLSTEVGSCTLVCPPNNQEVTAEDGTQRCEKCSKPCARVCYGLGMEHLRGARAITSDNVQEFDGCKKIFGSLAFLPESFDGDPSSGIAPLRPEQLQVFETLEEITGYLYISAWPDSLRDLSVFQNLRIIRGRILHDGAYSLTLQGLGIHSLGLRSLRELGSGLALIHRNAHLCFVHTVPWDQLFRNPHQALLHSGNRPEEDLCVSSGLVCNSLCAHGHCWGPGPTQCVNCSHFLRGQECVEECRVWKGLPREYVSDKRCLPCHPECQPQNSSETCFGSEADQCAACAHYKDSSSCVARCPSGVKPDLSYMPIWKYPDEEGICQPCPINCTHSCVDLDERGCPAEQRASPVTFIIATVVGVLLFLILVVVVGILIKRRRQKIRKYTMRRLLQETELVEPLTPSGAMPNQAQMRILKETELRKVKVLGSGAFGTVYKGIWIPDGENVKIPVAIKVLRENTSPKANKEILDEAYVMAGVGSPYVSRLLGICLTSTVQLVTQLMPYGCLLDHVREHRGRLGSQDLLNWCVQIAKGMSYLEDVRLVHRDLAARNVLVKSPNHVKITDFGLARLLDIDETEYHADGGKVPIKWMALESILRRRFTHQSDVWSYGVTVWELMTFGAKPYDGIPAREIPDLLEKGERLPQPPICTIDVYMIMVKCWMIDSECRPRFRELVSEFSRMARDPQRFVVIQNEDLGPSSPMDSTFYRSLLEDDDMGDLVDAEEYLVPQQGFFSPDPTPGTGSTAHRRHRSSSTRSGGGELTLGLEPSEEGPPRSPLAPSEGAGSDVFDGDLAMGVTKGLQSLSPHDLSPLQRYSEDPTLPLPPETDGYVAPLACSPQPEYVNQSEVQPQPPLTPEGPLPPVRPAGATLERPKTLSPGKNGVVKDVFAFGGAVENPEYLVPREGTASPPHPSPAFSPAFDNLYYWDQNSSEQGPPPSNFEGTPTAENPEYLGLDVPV
T1 sequence (Q62956 26-1308): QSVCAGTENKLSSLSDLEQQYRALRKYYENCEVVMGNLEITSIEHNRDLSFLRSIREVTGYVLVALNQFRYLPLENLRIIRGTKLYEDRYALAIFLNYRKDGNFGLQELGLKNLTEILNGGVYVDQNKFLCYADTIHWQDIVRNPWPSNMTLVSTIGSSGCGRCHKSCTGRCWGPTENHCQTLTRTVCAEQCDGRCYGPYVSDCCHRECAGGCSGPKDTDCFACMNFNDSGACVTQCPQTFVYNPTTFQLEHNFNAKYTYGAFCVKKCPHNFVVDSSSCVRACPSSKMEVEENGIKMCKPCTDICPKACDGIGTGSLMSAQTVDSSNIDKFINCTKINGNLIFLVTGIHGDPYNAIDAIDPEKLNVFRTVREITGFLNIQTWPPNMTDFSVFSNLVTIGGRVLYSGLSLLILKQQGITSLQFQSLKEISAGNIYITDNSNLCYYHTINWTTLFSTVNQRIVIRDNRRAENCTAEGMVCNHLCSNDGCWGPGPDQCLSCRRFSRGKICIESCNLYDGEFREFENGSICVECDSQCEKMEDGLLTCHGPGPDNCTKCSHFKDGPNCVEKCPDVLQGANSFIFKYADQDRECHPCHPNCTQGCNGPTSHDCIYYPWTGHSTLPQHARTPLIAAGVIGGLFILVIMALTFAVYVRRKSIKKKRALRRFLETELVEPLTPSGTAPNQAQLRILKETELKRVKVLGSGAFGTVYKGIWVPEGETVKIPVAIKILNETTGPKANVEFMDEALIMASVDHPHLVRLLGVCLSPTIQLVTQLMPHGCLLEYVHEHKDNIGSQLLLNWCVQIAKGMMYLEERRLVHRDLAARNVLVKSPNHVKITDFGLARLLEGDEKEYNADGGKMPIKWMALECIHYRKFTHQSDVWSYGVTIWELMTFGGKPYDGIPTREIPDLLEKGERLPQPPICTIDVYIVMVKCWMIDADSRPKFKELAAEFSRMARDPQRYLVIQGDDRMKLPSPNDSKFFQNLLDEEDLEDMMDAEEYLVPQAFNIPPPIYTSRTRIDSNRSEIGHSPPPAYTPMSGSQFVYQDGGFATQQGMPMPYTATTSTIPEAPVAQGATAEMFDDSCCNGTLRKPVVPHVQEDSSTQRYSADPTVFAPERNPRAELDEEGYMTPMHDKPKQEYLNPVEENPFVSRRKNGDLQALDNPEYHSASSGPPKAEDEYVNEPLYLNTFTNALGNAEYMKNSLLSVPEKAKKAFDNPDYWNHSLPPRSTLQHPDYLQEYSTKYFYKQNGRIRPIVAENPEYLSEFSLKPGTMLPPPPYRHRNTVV
T1 sequence (P06494 23-1257 partner): as the sequence (P06494 23-1257 partner) above

Row | Molecule | EC50 (ErbB4) [nM] | Selectivity SC/CM (ErbB4) | CM % Agonism AVG (ErbB4) [%] | Schwann cells (SC) (ErbB3) Avg EC50 (M) (ErbB3) | EC50 (ErbB4; [2]) [nM] | CM % Agonism AVG (ErbB4; [2]) [%] | EC50 (ErbB3) [nM] | Terminal serum exposure ([1]; 10 or 20 μg/kg SC, treated groups compared to vehicle group (FIG. 1A)) | Plasma exposure levels, 20 μg/kg vs 10 μg/kg ([1]; SC) | Adverse events (mortality/morbidity) ([1]; after treatment with 10 or 20 μg/kg SC) | Cardiac function (ejection fraction) ([1]; one week after SC dosing of 10 or 20 μg/kg, compared to vehicle group (FIG. 1B))
1 | :huFcSEFL2(desK):G4SG4:huNRG1(S177-F229)(NRGE1C): N-terminal Fc fusion of NRG1 variant SEQ ID NO:117 (protein, huFcSEFL2(desK)G4SG4huNRG1(S177-F229) (NRGE1C)) [letters of human IgG1 Fc with R292C N297G V302C (EU numbers) not shown]GGGGSGGGGSHLVKCGEKHKSFCVNGGECFMIEGPSNPSRYLCKCPNEFTGDRCQEDFMASF[letters of human IgG1 Fc with R292C N297G V302C (EU numbers) not shown]GGGGSGGGGSHLVKCGEKHKSFCVNGGECFMIEGPSNPSRYLCKCPNEFTGDRCQEDFMASF | 0.29 | >10000 | 71.8 | inactive |  |  |  |  |  |  | 
2 | :huFcSEFL2(desK):G4SG4:huNRG1(S177-F229)(NRGE1D): N-terminal Fc fusion of NRG1 variant SEQ ID NO:126 (protein, huFcSEFL2(desK)G4SG4huNRG1(S177-F229) (NRGE1D)) [letters of human IgG1 Fc with R292C N297G V302C (EU numbers) not shown]GGGGSGGGGSHLVKCGESHKSFCVNGGECYMVEGSSIPSRYLCKCPNEFTGDRCQEDFMASF[letters of human IgG1 Fc with R292C N297G V302C (EU numbers) not shown]GGGGSGGGGSHLVKCGESHKSFCVNGGECYMVEGSSIPSRYLCKCPNEFTGDRCQEDFMASF | 0.23 | >10000 | 76.2 | inactive |  |  |  |  |  |  | 
3 | huNRG1(S177-F229)(NRGE1C)((G4E)2)::G4::huFcSEFL2 (Pb): Fc fusion of NRG1 variant SEQ ID NO:117; ErbB4 selective agonist tested in rat MI model (Example 2) (protein, huNRG1(S177-F229)(NRGE1C) ((G4E)2)::G4::huFcSEFL2 (Pb)) SHLVKCGEKHKSFCVNGGECFMIEGPSNPSRYLCKCPNEFTGDRCQEDFMASFGGGGEGGGGEGGGG[letters of human IgG1 Fc with R292C N297G V302C (EU numbers) not shown] | 0.36 | >10000 | 81.9 | inactive | 0.073 | 88.7 | > 10000 | significantly higher | markedly higher in the 20 μg/kg group than in the 10 μg/kg group | No adverse events (mortality/morbidity) | improved cardiac function
4 | huNRG1(S177-F229)(NRGE1C) huIgG1z SELF2 Fc: Fc fusion of NRG1 variant SEQ ID NO:117 (protein, huNRG1(S177-F229)(NRGE1C) huIgG1z SELF2 Fc) SHLVKCGEKHKSFCVNGGECFMIEGPSNPSRYLCKCPNEFTGDRCQEDFMASFGGGGEGGGGAGGGG[letters of human IgG1 Fc with R292C N297G V302C (EU numbers) not shown] | 0.28 | >10000 | 77.2 |  |  |  | 10000 |  |  |  | 
5 | huNRG1(S177-F229)(NRGE1D) huIgG1z SELF2 Fc: Fc fusion of NRG1 variant SEQ ID NO:126 (protein, huNRG1(S177-F229) huIgG1z SELF2 Fc) SHLVKCGESHKSFCVNGGECYMVEGSSIPSRYLCKCPNEFTGDRCQEDFMASFGGGGEGGGGAGGGG[letters of human IgG1 Fc with R292C N297G V302C (EU numbers) not shown] | 0.48 | >10000 | 82.2 |  |  |  | 10000 |  |  |  | 
6 | huNRG1(S177-F229)(NRGE1C) (E47Q_D48S_M50P) huIgG1z SELF2 Fc: Fc fusion of NRG1 variant SEQ ID NO:121 (protein, huNRG1(S177-F229)(NRGE1C) (E47Q_D48S_M50P) huIgG1z SELF2 Fc) SHLVKCGEKHKSFCVNGGECFMIEGPSNPSRYLCKCPNEFTGDRCQQSFPASFGGGGEGGGGAGGGG[letters of human IgG1 Fc with R292C N297G V302C (EU numbers) not shown] | 0.3 | >10000 | 83.2 |  |  |  | 10000 |  |  |  | 
7 | huNRG1(S177-F229)(NRGE1C) (E47S_D48A_F49L_M50T) huIgG1z SELF2 Fc: Fc fusion of NRG1 variant SEQ ID NO:122 (protein, huNRG1(S177-F229)(NRGE1C) (E47S_D48A_F49L_M50T) huIgG1z SELF2 Fc) SHLVKCGEKHKSFCVNGGECFMIEGPSNPSRYLCKCPNEFTGDRCQSALTASFGGGGEGGGGAGGGG[letters of human IgG1 Fc with R292C N297G V302C (EU numbers) not shown] | 0.48 | >10000 | 87.8 |  |  |  | 10000 |  |  |  | 
8 | :huFcSEFL2(desK):G4SG4:huNRG1(S177-Q237)(NRGEIC): N-terminal Fc fusion of NRG1 variant SEQ ID NO:124 (protein, huFcSEFL2(desK)G4SG4huNRG1(S177-Q237) (NRGE1C)) [letters of human IgG1 Fc with R292C N297G V302C (EU numbers) not shown]GGGGSGGGGSHLVKCGEKHKSFCVNGGECFMIEGPSNPSRYLCKCPNEFTGDRCQEDFMASFYKAEELYQ[letters of human IgG1 Fc with R292C N297G V302C (EU numbers) not shown]GGGGSGGGGSHLVKCGEKHKSFCVNGGECFMIEGPSNPSRYLCKCPNEFTGDRCQEDFMASFYKAEELYQ | 0.11 | >10000 | 84.9 | inactive |  |  |  |  |  |  | 
9 | :huFcSEFL2(desK):G4SG4:huNRG1(S177-Q237)(NRGEID): N-terminal Fc fusion of NRG1 variant SEQ ID NO:131 (protein, huFcSEFL2(desK)G4SG4huNRG1(S177-Q237) (NRGE1D)) [letters of human IgG1 Fc with R292C N297G V302C (EU numbers) not shown]GGGGSGGGGSHLVKCGESHKSFCVNGGECYMVEGSSIPSRYLCKCPNEFTGDRCQEDFMASFYKAEELYQ[letters of human IgG1 Fc with R292C N297G V302C (EU numbers) not shown]GGGGSGGGGSHLVKCGESHKSFCVNGGECYMVEGSSIPSRYLCKCPNEFTGDRCQEDFMASFYKAEELYQ | 0.1 | >10000 | 90.5 | inactive |  |  |  |  |  |  | 
10 | huNRG1(S177-F229) huIgG1z SELF2 Fc: Fc fusion of NRG1 fragment S177-F229 without variant mutations (protein, huNRG1(S177-F229) huIgG1z SELF2 Fc, Fc fusion of NRG1 fragment S177-F229 without variant mutations) SHLVKCAEKEKTFCVNGGECFMVKDLSNPSRYLCKCPNEFTGDRCQNYVMASFGGGGEGGGGAGGGG[letters of human IgG1 Fc with R292C N297G V302C (EU numbers) not shown] | 0.31 | 0.4516 | 91.4 |  |  |  | 0.14 |  |  |  | 
